Results as given in PubChem BioAssay AID1508642 (National Center for Advancing Translational Sciences (NCATS), 2021).
The campaign covered roughly 43,000 compounds. About 200 (0.47%) were called active. About 12% were inconclusive and are not listed. Calls come from the whole dose curve; as a rule, active = well fitted cell-killing curve with a large enough effect; inconclusive = small, poorly fitted or top-dose-only effect, or effect the other way; inactive = flat fitted curve, though single readings scatter. Some of the results follow.
% is set by controls: 0 for no effect and ±100 for the full control effect.

Assay: Cell viability qHTS assay in S16 Pmp22-F2sN cells; note: nearly all actives have a fitted effect of over 65% in size
Conditions: S16 Pmp22-F2sN Schwann cells (luciferase reporters placed in the Pmp22 gene) viability, CellTiter-Glo, 24 h; series mostly up to 57.5 µM; activity change, negative = cytotoxicity: at the top concentration
In short: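 Rat S16 Schwann reporter line, 24 h treatment with library compounds delivered at 23 nL per well. Cell viability by CellTiter-Glo luminescence.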
For `Cc1cccc(CSc2nc3c(c(=O)[nH]2)C(c2cccc(O)c2)CC(=O)N3)c1` (stereo unspecified), the “activity change, negative = cytotoxicity” value was inactive: -15%.
In the case of `Cc1ccc(S(=O)(=O)C(CNC(=O)c2ccccc2F)c2cccs2)cc1` (stereo unspecified), the “activity change, negative = cytotoxicity” value is reported as inactive: -1.89%.
For `CCOC(=O)c1c(NC(=O)c2cc(C(C)C)on2)sc(C)c1C`, the “activity change, negative = cytotoxicity” value was inactive: 4.59%.
In the case of `COc1ccc(C2=C(C)C(=O)N(Cc3ccc(C(=O)NCc4ccc(C)cc4)cc3)S2(=O)=O)cc1`, the “activity change, negative = cytotoxicity” value is reported as inactive: 0.794%.
In the case of `Cc1cccc(CN2CCN(CC(=O)NCc3ccc(Cl)cc3)C2=O)c1`, the “activity change, negative = cytotoxicity” value is reported as inactive: -0.956%.
With `COc1ccc(CCNC(=O)C2CCCN(c3nc4c(C)cc(C)cc4s3)C2)cc1OC` (stereo unspecified) the “activity change, negative = cytotoxicity” value was inactive: 1.7%.
In the case of `Cc1nc(-c2ccc(C)c(S(=O)(=O)N3CCC(C(=O)NCc4ccc(Cl)cc4)CC3)c2)no1`, the “activity change, negative = cytotoxicity” value is reported as inactive: -1.29%.
For `CCc1ccc2oc(C(=O)Nc3nonc3CC)c(C)c2c1`, the “activity change, negative = cytotoxicity” value was inactive: -17.8%.
With `COc1ccc(-n2ncc(C(=O)N3CCc4ccccc4C3)c2C2CCN(C(=O)OC(C)(C)C)CC2)cc1` the “activity change, negative = cytotoxicity” value was inactive: 0.0073%.
In the case of `Cc1oc2ncn(C)c(=O)c2c1C(=O)NCCCN1CCCC(C)C1` (stereo unspecified), the “activity change, negative = cytotoxicity” value is reported as inactive: -1.72%.
For `O=C(Nc1ccc(Br)cc1F)c1ncoc1-c1ccco1`, the “activity change, negative = cytotoxicity” value was inactive: 2.15%.
In the case of `O=C(CSc1nccn1Cc1ccc(Cl)cc1)Nc1ccc2c(c1)OCCO2`, the “activity change, negative = cytotoxicity” value is reported as inactive: 3.14%.
In the case of `COc1cccc(C(c2c(O)cc(C)n(Cc3ccco3)c2=O)N2CCN(c3ccccc3)CC2)c1` (stereo unspecified), the “activity change, negative = cytotoxicity” value is reported as inactive: 4.75%.
For `COc1cc(Cl)c(C)cc1NC(=O)Cn1ncc2c([nH]c3ccccc32)c1=O`, the “activity change, negative = cytotoxicity” value was inactive: 2.17%.
In the case of `COC(=O)c1cc2sccc2n1Cc1nc(-c2ccc(Cl)cc2)oc1C`, the “activity change, negative = cytotoxicity” value is reported as inactive: 2.54%.
With `CCc1ccccc1NC(=O)c1ccc2c(c1)N(Cc1cc(C)ccc1C)C(=O)c1ccccc1S2(=O)=O` the “activity change, negative = cytotoxicity” value was inactive: -0.169%.
For `CCOCCCn1c(SCC(=O)Nc2ccc(C)cc2)nc2ccccc2c1=O`, the “activity change, negative = cytotoxicity” value was inactive: -7.13%.
With `COc1ccc(CNC(=O)C(C)n2ccc3cc(S(=O)(=O)N4CCCC4)ccc32)cc1OC` (stereo unspecified) the “activity change, negative = cytotoxicity” value was inactive: -5.77%.
For `Cc1cc(C)c(NC(=O)C2CCN(c3nnc(C)c4c(C)n(-c5ccccc5)nc34)CC2)c(C)c1`, the “activity change, negative = cytotoxicity” value was inactive: -1.58%.
With `O=C(NCc1ccc(F)cc1)c1c(O)nc2ccccn2c1=O` the “activity change, negative = cytotoxicity” value was inactive: 1.81%.
For `Cc1cc(Nc2cccc(C(F)(F)F)c2)nc2ccc(NC(=O)c3ccc(=O)[nH]c3)cc12`, the “activity change, negative = cytotoxicity” value was inactive: -0.46%.
In the case of `CCCCOc1cccc(NC(=O)CSc2nnc(C)s2)c1`, the “activity change, negative = cytotoxicity” value is reported as inactive: 0.0468%.
For `CN(Cc1ccccc1)c1ncnc2onc(-c3ccc(F)cc3)c12`, the “activity change, negative = cytotoxicity” value was inactive: -0.0838%.
With `O=C(COc1ccccc1)Nc1nnc(S(=O)(=O)N2CCCC2)s1` the “activity change, negative = cytotoxicity” value was inactive: 3.99%.
With `O=C(Nc1ccc2oc(-c3ccc4ccccc4c3)nc2c1)c1ccccc1F` the “activity change, negative = cytotoxicity” value was inactive: -3.43%.
For `O=C(OCC1CCCO1)c1ccc2c(c1)N(Cc1ccccc1Cl)C(=O)c1ccccc1S2(=O)=O` (stereo unspecified), the “activity change, negative = cytotoxicity” value was inactive: 6.08%.
In the case of `COc1ccccc1NC(=O)C(Cc1ccccc1)NS(=O)(=O)c1ccc2c(c1)c(=O)n(C)c(=O)n2C` (stereo unspecified), the “activity change, negative = cytotoxicity” value is reported as inactive: 13%.
For `CCOc1ccc(-n2c(=O)c3c4c(sc3n(CC(=O)Nc3cccc(C(F)(F)F)c3)c2=O)CCCCC4)cc1`, the “activity change, negative = cytotoxicity” value was inactive: 1.75%.
For `CC(NC(=O)CCNS(=O)(=O)c1cccc2nsnc12)c1ccccc1` (stereo unspecified), the “activity change, negative = cytotoxicity” value was inactive: 8.62%.
In the case of `Cc1ccc2c(=O)cc(CSCC(=O)Nc3nnc(C)s3)[nH]c2c1`, the “activity change, negative = cytotoxicity” value is reported as inactive: -4.55%.
In the case of `COc1ccc(Br)cc1C1Sc2ccccc2NC2=C1C(=O)c1ccccc12` (stereo unspecified), the “activity change, negative = cytotoxicity” value is reported as inactive: 3.27%.
With `COc1ccc(OC)c(NC(=O)CSc2nc3ccccc3nc2N2CCCCC2)c1` the “activity change, negative = cytotoxicity” value was inactive: -6.92%.
For `COc1ccc(NC(=O)COc2ccc(S(=O)(=O)NC3CCCCC3)cc2)cc1OC`, the “activity change, negative = cytotoxicity” value was inactive: 20.5%.
With `CCCC(=O)OCc1cnc(C)c2oc(=O)c(C(=O)Nc3ccccc3)cc12` the “activity change, negative = cytotoxicity” value was inactive: -1.61%.
For `COc1ccc(NC(=O)C2CCC(CNS(=O)(=O)c3ccc(Br)s3)CC2)cc1OC` (stereo unspecified), the “activity change, negative = cytotoxicity” value was inactive: 17.5%.
With `CCCCN(C)C(=O)C1CCC(CNS(=O)(=O)c2ccc(Cl)cc2)CC1` (stereo unspecified) the “activity change, negative = cytotoxicity” value was inactive: -11.3%.
For `Cc1ccc(-c2nc3c(c(SCC(=O)Nc4ccccc4Cl)n2)Cc2c(CO)cnc(C)c2O3)cc1`, the “activity change, negative = cytotoxicity” value was inactive: -7.28%.
In the case of `CCOC(=O)c1c(S(=O)(=O)NCC(=O)NCc2cccc(C)c2)c(C)n(C)c1C`, the “activity change, negative = cytotoxicity” value is reported as inactive: 7.21%.
With `Nc1c(C(=O)Nc2ccc(C(=O)O)cc2)sc2nc3c(cc12)CCCC3` the “activity change, negative = cytotoxicity” value was inactive: 2.67%.
For `COc1ccc(CCNC(=O)CSc2nc(-c3ccc(F)cc3)cc(C(F)(F)F)n2)cc1OC`, the “activity change, negative = cytotoxicity” value was inactive: 2.82%.
With `Cc1cccc(C(=O)Nc2nnc(S(=O)(=O)N(C)Cc3ccco3)s2)c1` the “activity change, negative = cytotoxicity” value was inactive: 1.1%.
In the case of `Cc1ccc(NC(=O)CN2C(=O)C3(SCC(=O)N3c3cccc(Cl)c3)c3ccccc32)cc1C` (stereo unspecified), the “activity change, negative = cytotoxicity” value is reported as inactive: -6.86%.
With `Cc1nn(-c2ccccc2)c2sc(C(=O)Nc3ccccc3Br)cc12` the “activity change, negative = cytotoxicity” value was inactive: 11.8%.
With `COc1cc(OC)cc(C(=O)Nc2ccc(S(=O)(=O)Nc3ncccn3)cc2)c1` the “activity change, negative = cytotoxicity” value was inactive: 10.3%.
For `O=C(NCc1ccc2c(c1)CCN2C(=O)c1ccc(Cl)cc1)c1cccc(F)c1`, the “activity change, negative = cytotoxicity” value was inactive: 0.178%.
In the case of `Cc1ccc(NC(=O)CCS(=O)(=O)c2cc3c4c(c2)CCN4C(=O)CC3)c(C)c1`, the “activity change, negative = cytotoxicity” value is reported as inactive: -14.7%.
With `O=C(Nc1nnc(S(=O)(=O)Nc2ccccc2)s1)c1ccccc1Cl` the “activity change, negative = cytotoxicity” value was inactive: -22.7%.
In the case of `CCc1noc(-c2ccc(N3CCCCC3C)c([N+](=O)[O-])c2)n1` (stereo unspecified), the “activity change, negative = cytotoxicity” value is reported as inactive: -13.8%.
In the case of `CCOc1ccccc1NS(=O)(=O)c1ccc(-c2cnc(C3CC3)o2)cc1`, the “activity change, negative = cytotoxicity” value is reported as inactive: -17.5%.
With `Cc1ccc(-c2csc(=Nc3ccc(F)cc3)n2Cc2ccc3c(c2)OCO3)cc1C` the “activity change, negative = cytotoxicity” value was inactive: -9.52%.
In the case of `COc1cccc(NC(=O)CC(C)S(=O)(=O)c2ccc3c(c2)NC(=O)CO3)c1` (stereo unspecified), the “activity change, negative = cytotoxicity” value is reported as inactive: 8.47%.
For `Cc1c(Cl)cccc1NC(=O)c1ncn(-c2ccccc2)n1`, the “activity change, negative = cytotoxicity” value was inactive: -3.35%.
For `O=c1c(N2CCc3ccccc3C2)csc2ccccc12`, the “activity change, negative = cytotoxicity” value was inactive: 6.66%.
In the case of `O=C(NCCc1ccccc1)c1ccc2c(c1)N(Cc1ccccc1F)C(=O)c1ccccc1S2=O` (stereo unspecified), the “activity change, negative = cytotoxicity” value is reported as inactive: -1.86%.
For `Cc1ccc(C2CCN(C(=O)c3cnn(-c4ccc(C)cc4)c3C3CCN(C(=O)OC(C)(C)C)CC3)C2)cc1` (stereo unspecified), the “activity change, negative = cytotoxicity” value was inactive: -1.08%.
With `CC1=C(C(=O)Nc2cccnc2)C(c2ccccc2)n2nc(-c3ccc(O)cc3)nc2N1` (stereo unspecified) the “activity change, negative = cytotoxicity” value was inactive: -28.5%.
With `Cc1ccc(-c2ccc(=O)n(CC(=O)Nc3cccc(C#N)c3)n2)cc1` the “activity change, negative = cytotoxicity” value was inactive: -1.7%.
In the case of `CCOc1ccc(-c2nc3c(c(SCC(=O)N4CCCCC4)n2)Cc2ccccc2O3)cc1`, the “activity change, negative = cytotoxicity” value is reported as inactive: 5.76%.
For `CNC(=O)C1CCC(Cn2c(=O)c3sccc3n(CC(=O)NCc3ccc(F)cc3)c2=O)CC1` (stereo unspecified), the “activity change, negative = cytotoxicity” value was inactive: 0.154%.
With `O=C(C1CCCN(S(=O)(=O)c2ccc(Br)s2)C1)N1CCN(c2ccccc2)CC1` (stereo unspecified) the “activity change, negative = cytotoxicity” value was inactive: -15.4%.
For `CCOC(=O)CNS(=O)(=O)c1cc(-c2nnc(Nc3cccc(O)c3)c3ccccc23)ccc1C`, the “activity change, negative = cytotoxicity” value was inactive: 9.63%.
